Test results as given in PubChem BioAssay AID192 (DTP/NCI, 2004).
Inconclusive results and toxic doses are left out. Not every entry of the source has a single result; some have several. The other results are left out here. There may be further records. Results that share an entry differ for a reason that is not stated; some may be repeats, others may stem from another dose, organism or construct than stated. A tag in brackets gives the origin of a value. The letters are not those of the source and start again with each entry.

System: BDF1 mice, B16 melanoma ip, median survival T/C
Test: NCI In Vivo Anticancer Drug Screen. Data for tumor model B16 Melanoma (intraperitoneal) in B6D2F1 (BDF1) mice
Conditions: endpoint: median survival time, higher = longer survival
Procedure: The antitumor activity of compounds was measured in mice bearing transplantable tumors. Survival or tumor size were measured and the results are expressed as the measurement made in the treated group (T) divided by the measurement made in the vehicle treated control group (C). The tumor model used in this assay is B16 Melanoma (intraperitoneal) in B6D2F1 (BDF1) mice

[1] = dose: 5.0 mg/kg/injection, schedule: Q01DX001 (ip), vehicle: water

With `CCCCNC(C)C1(O)Cc2c(O)c3c(c(O)c2C(OC2CC(N)C(O)C(C)O2)C1)C(=O)c1c(OC)cccc1C3=O` (configuration not stated) the T/C (dose: 25.0 mg/kg/injection, schedule: Q01DX001 (ip), vehicle: water) was 104 % of control and 178 % of control.

For `O=NN(CCCl)C(=O)NCCCl`, the T/C (dose: 10.0 mg/kg/injection, schedule: Q04DX003 (ip), vehicle: saline + alcohol) was 118 % of control and 187 % of control.

With `CC[C@]12CN3CCc4c([nH]c5ccccc45)[C@@](C(=O)OC)(c4cc5c(cc4OC)N(C)[C@H]4[C@@](O)(C(=O)OC)[C@H](OC(C)=O)[C@]6(CC)C=CCN7CC[C@]54[C@@H]76)CC(C3)[C@H]1O2` (some centres not stated) the T/C (dose: 1.5 mg/kg/injection, schedule: Q01DX009 (ip), vehicle: saline) was 119 % of control [sample A] and 114 % of control, 176 % of control [sample B].

With `COc1cccc2c1C(=O)c1c(O)c3c(c(O)c1C2=O)C[C@@](O)(/C(C)=N\NC(=O)CO)C[C@@H]3OC1CC(N)C(O)C(C)O1` (some centres not stated) the T/C [1] was 119 % of control and 154 % of control.

`COc1cccc2c1C(=O)c1c(O)c3c(c(O)c1C2=O)C[C@@](O)(/C(CO)=N/NC(=O)c1ccc(Cl)c(Cl)c1)C[C@@H]3OC1CC(N)C(O)C(C)O1` (some centres not stated) was tested, and the T/C (dose: 2.5 mg/kg/injection, schedule: Q01DX001 (ip), vehicle: water) was 110 % of control and 160 % of control and the T/C [1] was 116 % of control and 156 % of control.

With `COc1cccc2c1C(=O)c1c(O)c3c(c(O)c1C2=O)C[C@@](O)(C(C)=O)C[C@@H]3OC1CC(N)C(O)C(C)O1` (some centres not stated) the T/C (dose: 0.25 mg/kg/injection, schedule: Q04DX003 (ip), vehicle: saline) was 119 % of control and 186 % of control.
